Laboratory results: PubChem BioAssay (NCI)
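96-well plates; 48 h exposure; 5 concentrations. Endpoints by linear interpolation between flanking doses. Not reached: highest tested concentration assigned. GI50 marks 50% less growth.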 For part of its entries the source gives two or more results. Only these are listed. An entry can have further records. For some assays here: Records of one sample usually come from different ranges of test concentrations, not given here; some values may only mark the edge of a range. For some assays here: Values given together repeat one measurement in other runs, samples, wells, individuals or studies. Marks in square brackets tell the records apart. A, B and so on number the origins entry by entry.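 TGI: concentration producing complete growth inhibition.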 Where a SMILES comes first, the peptide text is derived from it. [ ]: non-standard residue; d: D form. Aoe = N[C@@H](CCCCCC(=O)[C@@H]1CO1)C(=O)O

Columns and labels:
Test in all cases: growth of human tumour cells (NCI), 48 h
[1] = system: K-562 leukemia
[2] = system: UACC-257 melanoma
[3] = system: MOLT-4 leukemia
[4] = system: NCI-H23 lung
[5] = system: SK-MEL-5 melanoma
[6] = system: SR leukemia
[7] = system: NCI-H522 lung
[8] = system: SK-MEL-28 melanoma
[9] = system: HS 578T breast
[10] = system: MDA-MB-435

Compound: COc1ccc2[nH]cc([C@@H]3C4CCC(C4)[C@H]3NCc3cccc(CN[C@H]4C5CCC(C5)[C@@H]4c4c[nH]c5ccc(OC)cc45)c3)c2c1
- TGI [1]: > 100 µM [sample A] and 433 nM [sample B]

Compound: CC1=CC(=C(c2ccc(N)cc2)c2ccc(N)cc2)C=CC1=N
- TGI [1]: 5.23 µM [sample A] and > 100 µM [sample B]

Compound: O=C1N[C@@H](Cc2ccccc2)C(=O)N2CCC[C@@H]2C(=O)N[C@@H](CCCCCC(=O)[C@@H]2CO2)C(=O)N[C@H]1Cc1ccccc1 (cyclo(FF[dP][Aoe]))
- TGI [2]: 378 nM and 18.9 nM

Compound: CCCC(=O)NC1CCc2cc(OC)c(OC)c(OC)c2-c2ccc(OC)c(=O)cc21 (stereo unspecified)
- TGI [3]: 437 nM and > 100 µM
- TGI [4]: 658 nM and > 100 µM
- TGI [5]: 1.7 nM and > 100 µM
- TGI [6]: 630 nM and > 100 µM

Compound: C=CC(=O)NCc1cccc(Nc2ncc(Br)c(NCCCNC(=O)C3CCC3)n2)c1
- GI50 [7]: 1.76 µM and 171 nM

Compound: CC1CCC2(C(=O)O)CCC3(C)C(=CCC4C5(C)CCC(O)C(C)(C)C5CCC43C)C2C1C (stereo unspecified)
- TGI [8]: > 100 µM [sample A, 1 test] and 4.15 µM [sample B, mean of 5 tests]

Compound: CC1(C)CCC2=C(O1)c1ccccc1C(=O)C2=O
- GI50 [9]: 233 nM [sample A, 1 test] and 2.41 µM [sample B, 1 test]
- TGI [10]: 4.75 µM [sample A] and 355 nM [sample B]
